Laboratory results taken from the supplement of paper PMC4967469.

Columns and labels:
Assay in all cases: Viability of human cancer cell lines after 72 h of drug (GDSC screen)
JQ1 = compound: Cc1sc2c(c1C)C(c1ccc(Cl)cc1)=N[C@@H](CC(=O)OC(C)(C)C)c1nnc(C)n1-2 [JQ1]
Description: (§1)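 Human cancer cell lines in 384-well plates, medium with 10% serum, drug for 72 h over a 256-fold dose range (nine 2-fold or five 4-fold steps up to the top dose). Adherent lines were fixed and stained with the nucleic acid dye Syto60, suspension lines read with resazurin; signal relative to control wells, capped at 0 and 100%. One two-parameter sigmoid per drug and line, fitted in a mixed model over all curves with the slope shared within a line.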

Docetaxel = compound: CC(=O)O[C@@]12CO[C@@H]1C[C@H](O)[C@@]1(C)C(=O)[C@H](O)C3=C(C)[C@@H](OC(=O)[C@H](O)[C@@H](NC(=O)OC(C)(C)C)c4ccccc4)C[C@@](O)([C@@H](OC(=O)c4ccccc4)[C@H]21)C3(C)C [Docetaxel]; conditions: top dose 0.0125 µM
Description: as §1

YM155 = compound: COCC[n+]1c2c(n(Cc3cnccn3)c1C)C(=O)c1ccccc1C2=O [YM155]; conditions: top dose 5.12 µM
Description: as §1

OSI-906 = compound: C[C@]1(O)C[C@@H](c2nc(-c3ccc4ccc(-c5ccccc5)nc4c3)c3c(N)nccn32)C1 [OSI-906]; conditions: top dose 2.56 µM; top dose inferred
Description: as §1

Belinostat = compound: O=C(/C=C/c1cccc(S(=O)(=O)Nc2ccccc2)c1)NO [Belinostat]; conditions: top dose 20 µM; top dose inferred
Description: as §1

JNK Inhibitor VIII = compound: CCOc1nc(NC(=O)Cc2cc(OC)ccc2OC)cc(N)c1C#N [JNK Inhibitor VIII]; conditions: top dose 10 µM; top dose inferred
Description: as §1

JNJ-26854165 = compound: c1ccc2c(CCNc3ccc(Nc4ccncc4)cc3)c[nH]c2c1 [JNJ-26854165]; conditions: top dose 10 µM
Description: as §1

NSC-207895 = compound: CN1CCN(c2ccc([N+](=O)[O-])c3no[n+]([O-])c23)CC1 [NSC-207895]; conditions: top dose 20 µM; top dose inferred
Description: as §1

SB-715992 = compound: Cc1ccc(C(=O)N(CCCN)[C@@H](c2nc3cc(Cl)ccc3c(=O)n2Cc2ccccc2)C(C)C)cc1 [SB-715992]; conditions: top dose 0.128 µM; top dose inferred
Description: as §1

AMG-706 = compound: CC1(C)CNc2cc(NC(=O)c3cccnc3NCc3ccncc3)ccc21 [AMG-706]; conditions: top dose 2 µM; top dose inferred
Description: as §1

FTI-277 = compound: COC(=O)[C@H](CCSC)NC(=O)c1ccc(NC[C@@H](N)CS)cc1-c1ccccc1 [FTI-277]; conditions: top dose 1.024 µM; top dose inferred
Description: as §1

[1] = top dose 1 µM, screen: GDSC drug entry 1218, top dose inferred
[2] = top dose 2.56 µM, screen: GDSC drug entry 163

OVCAR-8 (ovary, adherent)
AUC (JQ1; [1]): 0.987 | IC50 (JQ1; [1]): > 1000 nM | AUC (JQ1; [2]): 0.687 | IC50 (JQ1; [2]): 500 nM | AUC (Docetaxel): 0.745 | IC50 (Docetaxel): 3.59 nM | AUC (YM155): 0.023 | IC50 (YM155): < 20 nM | AUC (OSI-906): 0.974 | IC50 (OSI-906): > 2560 nM | AUC (Belinostat): 0.22 | IC50 (Belinostat): 213 nM | AUC (JNK Inhibitor VIII): 0.989 | IC50 (JNK Inhibitor VIII): > 10000 nM | AUC (JNJ-26854165): 0.789 | IC50 (JNJ-26854165): 3910 nM | AUC (NSC-207895): 0.954 | IC50 (NSC-207895): > 20000 nM | AUC (SB-715992): 0.754 | IC50 (SB-715992): 39.1 nM | AUC (AMG-706): 0.986 | IC50 (AMG-706): > 2000 nM | AUC (FTI-277): 0.989 | IC50 (FTI-277): > 1020 nM

CAL-51 (breast, adherent)
AUC (JQ1; [1]): 0.978 | IC50 (JQ1; [1]): > 1000 nM | AUC (JQ1; [2]): 0.92 | IC50 (JQ1; [2]): > 2560 nM | AUC (Docetaxel): 0.741 | IC50 (Docetaxel): 3.41 nM | AUC (YM155): 0.447 | IC50 (YM155): 234 nM | AUC (OSI-906): 0.986 | IC50 (OSI-906): > 2560 nM | AUC (Belinostat): 0.914 | IC50 (Belinostat): > 20000 nM | AUC (JNK Inhibitor VIII): 0.991 | IC50 (JNK Inhibitor VIII): > 10000 nM | AUC (JNJ-26854165): 0.897 | IC50 (JNJ-26854165): 9470 nM | AUC (NSC-207895): 0.982 | IC50 (NSC-207895): > 20000 nM | AUC (SB-715992): 0.988 | IC50 (SB-715992): > 128 nM | AUC (AMG-706): 0.991 | IC50 (AMG-706): > 2000 nM | AUC (FTI-277): 0.989 | IC50 (FTI-277): > 1020 nM

TOV-112D (ovary, adherent)
AUC (JQ1; [1]): 0.934 | IC50 (JQ1; [1]): > 1000 nM | AUC (JQ1; [2]): 0.547 | IC50 (JQ1; [2]): 215 nM | AUC (Docetaxel): 0.684 | IC50 (Docetaxel): 2.57 nM | AUC (YM155): 0.034 | IC50 (YM155): < 20 nM | AUC (OSI-906): 0.941 | IC50 (OSI-906): > 2560 nM | AUC (Belinostat): 0.364 | IC50 (Belinostat): 525 nM | AUC (JNK Inhibitor VIII): 0.974 | IC50 (JNK Inhibitor VIII): > 10000 nM | AUC (JNJ-26854165): 0.857 | IC50 (JNJ-26854165): 8240 nM | AUC (NSC-207895): 0.913 | IC50 (NSC-207895): > 20000 nM | AUC (SB-715992): 0.361 | IC50 (SB-715992): 3.3 nM | AUC (AMG-706): 0.984 | IC50 (AMG-706): > 2000 nM | AUC (FTI-277): 0.943 | IC50 (FTI-277): > 1020 nM

MEL-JUSO (melanoma, adherent)
AUC (JQ1; [1]): 0.982 | IC50 (JQ1; [1]): > 1000 nM | AUC (JQ1; [2]): 0.804 | IC50 (JQ1; [2]): 1460 nM | AUC (Docetaxel): 0.811 | IC50 (Docetaxel): 7.62 nM | AUC (YM155): 0.03 | IC50 (YM155): < 20 nM | AUC (OSI-906): 0.729 | IC50 (OSI-906): 784 nM | AUC (Belinostat): 0.399 | IC50 (Belinostat): 636 nM | AUC (JNK Inhibitor VIII): 0.98 | IC50 (JNK Inhibitor VIII): > 10000 nM | AUC (JNJ-26854165): 0.882 | IC50 (JNJ-26854165): > 10000 nM | AUC (NSC-207895): 0.736 | IC50 (NSC-207895): 6470 nM | AUC (SB-715992): 0.71 | IC50 (SB-715992): 33.9 nM | AUC (AMG-706): 0.924 | IC50 (AMG-706): > 2000 nM | AUC (FTI-277): 0.656

KON (head and neck, adherent)
AUC (JQ1; [1]): 0.982 | IC50 (JQ1; [1]): > 1000 nM | AUC (JQ1; [2]): 0.728 | IC50 (JQ1; [2]): 701 nM | AUC (Docetaxel): 0.415 | IC50 (Docetaxel): 0.459 nM | AUC (YM155): 0.412 | IC50 (YM155): 185 nM | AUC (OSI-906): 0.848 | IC50 (OSI-906): 1850 nM | AUC (Belinostat): 0.826 | IC50 (Belinostat): 11800 nM | AUC (JNK Inhibitor VIII): 0.957 | IC50 (JNK Inhibitor VIII): > 10000 nM | AUC (JNJ-26854165): 0.77 | IC50 (JNJ-26854165): 3730 nM | AUC (NSC-207895): 0.986 | IC50 (NSC-207895): > 20000 nM | AUC (SB-715992): 0.983 | IC50 (SB-715992): > 128 nM | AUC (AMG-706): 0.951 | IC50 (AMG-706): > 2000 nM | AUC (FTI-277): 0.7 | IC50 (FTI-277): 230 nM

JHU-022 (head and neck, adherent)
AUC (JQ1; [1]): 0.951 | IC50 (JQ1; [1]): > 1000 nM | AUC (JQ1; [2]): 0.953 | IC50 (JQ1; [2]): > 2560 nM | AUC (Docetaxel): 0.63 | IC50 (Docetaxel): 1.96 nM | AUC (YM155): 0.513 | IC50 (YM155): 350 nM | AUC (OSI-906): 0.922 | IC50 (OSI-906): > 2560 nM | AUC (Belinostat): 0.699 | IC50 (Belinostat): 5330 nM | AUC (JNK Inhibitor VIII): 0.924 | IC50 (JNK Inhibitor VIII): > 10000 nM | AUC (JNJ-26854165): 0.852 | IC50 (JNJ-26854165): > 10000 nM | AUC (NSC-207895): 0.982 | IC50 (NSC-207895): > 20000 nM | AUC (SB-715992): 0.955 | IC50 (SB-715992): > 128 nM | AUC (AMG-706): 0.955 | IC50 (AMG-706): > 2000 nM | AUC (FTI-277): 0.973 | IC50 (FTI-277): > 1020 nM

The IC50 comes from the fitted curve, where viability falls to half of the control; fits outside the tested doses are given as limits. AUC, from the same fit, is the share of area under the viability curve across the 256-fold dose range; it is 1 without any effect and falls as sensitivity rises. For some assays here: A top dose marked as inferred is not printed in the source and was worked back from the curve model. For some assays here: An entry number marks a drug with two screens in the source, which often give different values.
